Reference: PubChem BioAssay (Tox21)
Inconclusive means that the source gave no clear call. Such entries were picked first, then a sample of the others. For some of these results: Where the call is inconclusive, the potency comes from a doubtful curve fit. Active and inactive are the calls of the source. Unless noted, the call rests on the fitted dose curve; in most records, active means well fitted curve in the direction sought with a large enough effect in the repeat runs; inconclusive means weak or mixed curves; inactive means no such curve, though single readings can be large; an effect the other way counts as inactive or inconclusive.

Columns and labels:
[1] = molecular target: Glucocorticoid receptor (Homo sapiens) (UniProt P04150); experiment: qHTS assay to identify small molecule antagonists of the glucocorticoid receptor (GR) signaling pathway (AID 720692; active means well fitted inhibition curve with a large enough effect in the signal ratio in the repeat runs, not every such curve was filed as active; inconclusive means weak or mixed curves, or effect the other way; inactive means no such curve, though single readings can be large or run the other way; the % refers to the signal ratio; further: on the % scale 0 is the no-effect control and ±100 the full control effect); details: GR-bla HeLa, beta-lactamase FRET ratio, dexamethasone-stimulated, 18 h; activity change, negative = inhibition: at 58.5 µM (top of the series) unless noted
Summary of the method: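 Inhibition of dexamethasone-driven (5 nM final) beta-lactamase expression was measured in GRE-reporter HeLa cells over 18 h at 37C. Fluorescence was read after 2 h with the B/G FRET substrate at room temperature.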

[2] = molecular target: Peroxisome proliferator-activated receptor gamma (Homo sapiens) (UniProt P37231); experiment: qHTS assay to identify small molecule antagonists of the peroxisome proliferator-activated receptor gamma (PPARg) signaling pathway (AID 743191; calls by dose curve; further: on the % scale 0 is the no-effect control and ±100 the full control effect; nearly all actives have a fitted effect of over 30% in size); details: HEK293H PPARg-UAS-bla, beta-lactamase ratio, antagonist, 17 h; ratio activity, negative = inhibition: at 62.6 µM (top of the series) unless noted
Summary of the method: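 GeneBLAzer PPARg UAS-bla HEK293H cells, 5 h post-plating, exposed to compounds 17 h at 37C. LiveBLAzer B/G FRET substrate added for 1 h at room temperature; beta-lactamase reporter read by fluorescence intensity.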

[3] = qHTS assay to identify small molecule antagonists of the peroxisome proliferator-activated receptor gamma (PPARg) signaling pathway - cell viability counter screen (AID 743194); details: PPARg-bla HEK293H viability, CellTiter-Glo luminescence, 17 h, co-treated with 50 nM rosiglitazone; activity change, negative = cytotoxicity: at 62.6 µM (top of the series) unless noted; further: on the % scale 0 is the no-effect control and ±100 the full control effect; nearly all actives have a fitted effect of over 55% in size
Summary of the method: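 Cytotoxicity counter screen in PPARg-bla HEK293H cells, same wells as reporter assay. Compounds plus 50 nM rosiglitazone (final) for 17 h at 37 C, then viability read by CellTiter-Glo luminescence.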

[4] = qHTS assay for small molecule agonists of the antioxidant response element (ARE) signaling pathway (AID 743202; active means well fitted activation curve with a large enough effect in the signal ratio in the repeat runs, not every such curve was filed as active; inconclusive means weak or mixed curves, or effect the other way; inactive means no such curve, though single readings can be large or run the other way; the % refers to the signal ratio; further: on the % scale 0 is the no-effect control and ±100 the full control effect); details: HepG2 ARE-bla reporter, beta-lactamase FRET, 16 h; activation: at 73.3 µM (top of the series) unless noted
Summary of the method: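 HepG2 ARE-bla cells; 16 h treatment at 37 C; FRET-based beta-lactamase fluorescence read after 2 h substrate incubation at room temperature.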

[5] = qHTS assay for small molecule activators of the heat shock response signaling pathway - cell viability counter screen (AID 743209); details: HSE-bla HeLa viability, CellTiter-Glo luminescence, 5 h; activity change, negative = cytotoxicity: at 62.6 µM (top of the series) unless noted; further: potency means the concentration at half of the fitted maximal effect; nearly all actives have a fitted effect of over 50% in size
Summary of the method: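 Cytotoxicity counter screen run in the same wells as the heat-shock bla reporter assay: HeLa HSE-bla cells, 5 h compound exposure at 37 C, viability read by CellTiter-Glo luminescence.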

[6] = molecular target: Peroxisome proliferator-activated receptor delta (Homo sapiens) (UniProt Q03181); experiment: qHTS assay to identify small molecule antagonists of the peroxisome proliferator-activated receptor delta (PPARd) signaling pathway (AID 743215; active means well fitted inhibition curve with a large enough effect in the signal ratio in the repeat runs, not every such curve was filed as active; inconclusive means weak or mixed curves, or effect the other way; inactive means no such curve, though single readings can be large or run the other way; the % refers to the signal ratio;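 further: cells stimulated with agonist L165041 at 300 nM final during compound exposure; on the % scale 0 is the no-effect control and ±100 the full control effect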); details: HEK293H PPARd-UAS-bla, beta-lactamase FRET ratio, antagonist, 17 h; ratio activity, negative = inhibition: at 62 µM (top of the series) unless noted
Summary of the method: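 Agonist L165041 (300 nM final) added with compound to PPARd-bla HEK293H UAS-bla reporter cells; 17 h incubation at 37 C. Read-out: LiveBLAzer FRET substrate, 2 h at room temperature, fluorescence intensity.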

[7] = molecular target: Vitamin D3 receptor (Homo sapiens) (UniProt P11473); experiment: qHTS assay to identify small molecule agonists of the vitamin D receptor (VDR) signaling pathway (AID 743222; calls by dose curve; further: on the % scale 0 is the no-effect control and ±100 the full control effect); details: HEK293T VDR-UAS-bla, beta-lactamase FRET ratio, 16 h; activation: at 63.5 µM (top of the series) unless noted
Summary of the method: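 Agonist mode, beta-lactamase reporter: fluorescence from LiveBLAzer B/G FRET substrate (2 h, room temperature) read after 16 h compound treatment at 37 C of VDR-bla cells, which were pre-incubated 4 h after seeding.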

[8] = molecular target: Progesterone receptor (Homo sapiens) (UniProt P06401); experiment: qHTS assay to identify small molecule antagonists of the progesterone receptor (PR) signaling pathway (AID 1346795; active means well fitted inhibition curve with a large enough effect in the signal ratio in the repeat runs, not every such curve was filed as active; inconclusive means weak or mixed curves; the % refers to the signal ratio; further: on the % scale 0 is the no-effect control and ±100 the full control effect); details: PR-UAS-bla HEK293T, beta-lactamase FRET ratio, 16 h; activity change, negative = inhibition: at 92.4 µM (top of the series) unless noted
Summary of the method: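 Fluorescence intensity measured 2 hr after adding beta-lactamase FRET substrate to PR-UAS-bla HEK293T cells that had been co-treated 16 hr with compound and 1 nM R5020 (final concentration) in 2% charcoal-stripped FBS.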

[9] = qHTS assay to identify small molecule antagonists of the progesterone receptor (PR) signaling pathway - cell viability counter screen (AID 1346798); further: potency means the concentration at half of the fitted maximal effect; nearly all actives have a fitted effect of over 50% in size
Summary of the method: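 CellTiter-Glo luminescence; PR-UAS-bla HEK293T, 3,000 cells/well; compound + R5020, 16 hr, 37C/5% CO2; 30 min RT before read.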

[10] = molecular target: Cytochrome P450 1A2 (Homo sapiens) (UniProt P05177); experiment: Cytochrome P450 Family 1 Subfamily A Member 2 (CYP1A2) small molecule antagonists: luciferase reporter qHTS assay (AID 1671199); further: potency means the concentration at half of the fitted maximal effect; nearly all actives have a fitted effect of over 50% in size
Summary of the method: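 Luminescence from luciferin formed by CYP1A2 from a proluciferin substrate, read 20 min after detection reagent. Compound was pre-incubated 10 min with enzyme-substrate, and reaction started with NADPH regeneration solution for 1 h at room temperature; furafylline control.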

[11] = molecular target: Bile acid receptor (Homo sapiens) (UniProt Q96RI1); experiment: qHTS assay to identify small molecule antagonists of the farnesoid-X-receptor (FXR) signaling pathway (AID 743217; active means well fitted inhibition curve with a large enough effect in the signal ratio in the repeat runs, not every such curve was filed as active; inconclusive means weak or mixed curves, or effect the other way; inactive means no such curve, though single readings can be large or run the other way; the % refers to the signal ratio; further: on the % scale 0 is the no-effect control and ±100 the full control effect); details: HEK293T FXR-UAS-bla, beta-lactamase ratio, CDCA-stimulated, 16 h; activity change, negative = inhibition: at 62.6 µM (top of the series) unless noted
Summary of the method: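 Antagonist mode: chenodeoxycholic acid at 50 uM final stimulates a UAS-driven beta-lactamase reporter in HEK 293T FXR-bla cells during 16 h, 37C compound exposure. Read-out is FRET substrate fluorescence after 2 h at room temperature.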

[12] = molecular target: Vitamin D3 receptor (Homo sapiens) (UniProt P11473); experiment: qHTS assay to identify small molecule antagonists of the vitamin D receptor (VDR) signaling pathway (AID 743223; active means well fitted inhibition curve with a large enough effect in the signal ratio in the repeat runs, not every such curve was filed as active; inconclusive means weak or mixed curves, or effect the other way; inactive means no such curve, though single readings can be large or run the other way; the % refers to the signal ratio; further: on the % scale 0 is the no-effect control and ±100 the full control effect); details: VDR-UAS-bla HEK293T, beta-lactamase FRET ratio, 16 h; activity change, negative = inhibition: at 61 µM (top of the series) unless noted
Summary of the method: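 Quantitative HTS in VDR-bla reporter cells stimulated with 1alpha,25-dihydroxyvitamin D3, 3 nM final. Compound exposure 16 h, 37C, 5% CO2. Read-out: beta-lactamase FRET substrate fluorescence, 2 h RT.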

[13] = molecular target: Cytochrome P450 2D6 (Homo sapiens) (UniProt P10635); experiment: Cytochrome P450 Family 2 Subfamily D Member 6 (CYP2D6) small molecule antagonists: luciferase reporter qHTS assay (AID 1671196); further: on the % scale 0 is the no-effect control and ±100 the full control effect; nearly all actives have a fitted effect of over 50% in size
Summary of the method: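 CYP2D6 activity was followed as luminescence from its luciferin product after a 1 h NADPH-driven reaction at room temperature. Enzyme-substrate mix and compound were pre-incubated for 10 min, and the signal was read 20 min after adding detection reagent.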

[14] = molecular target: Cytochrome P450 2C9 (Homo sapiens) (UniProt P11712); experiment: Cytochrome P450 Family 2 Subfamily C Member 9 (CYP2C9) small molecule antagonists: luciferase reporter qHTS assay (AID 1671198)
Summary of the method: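 P450-Glo proluciferin substrate with CYP2C9 enzyme; 10 min RT preincubation, then NADPH regeneration 1 h at 37C; luciferin detection reagent 20 min RT, luminescence in relative luminescence units.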

[15] = qHTS assay to identify small molecule agonists of the TGF-beta/Smad signaling pathway (AID 1346859; active means well fitted activation curve with a large enough effect in the signal ratio in the repeat runs, not every such curve was filed as active; inconclusive means weak or mixed curves; the % refers to the signal ratio; further: on the % scale 0 is the no-effect control and ±100 the full control effect)
Summary of the method: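 After overnight seeding, SBE-bla HEK 293T cells are dosed with compounds in DMSO and kept 5 hr at 37 C, 5% CO2. LiveBLAzer-type FRET substrate is then applied for 2 hr at room temperature.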
Tags describe the fitted curve by direction and shape.

UniProt Q03181, sequence (Q03181 whole entry, looked up): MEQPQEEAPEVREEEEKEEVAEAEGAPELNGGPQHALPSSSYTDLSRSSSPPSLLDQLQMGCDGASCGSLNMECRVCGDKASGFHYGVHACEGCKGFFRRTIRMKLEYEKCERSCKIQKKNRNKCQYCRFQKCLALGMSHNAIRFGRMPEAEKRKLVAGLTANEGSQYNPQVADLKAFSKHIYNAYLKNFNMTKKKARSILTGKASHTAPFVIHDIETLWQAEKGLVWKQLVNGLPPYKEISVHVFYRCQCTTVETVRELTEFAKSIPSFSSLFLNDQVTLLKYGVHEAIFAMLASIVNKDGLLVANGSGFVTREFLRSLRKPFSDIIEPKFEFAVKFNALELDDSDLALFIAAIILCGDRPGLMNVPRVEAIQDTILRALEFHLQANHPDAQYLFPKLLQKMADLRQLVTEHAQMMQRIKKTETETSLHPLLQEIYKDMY
UniProt P11473, sequence (P11473 whole entry, looked up): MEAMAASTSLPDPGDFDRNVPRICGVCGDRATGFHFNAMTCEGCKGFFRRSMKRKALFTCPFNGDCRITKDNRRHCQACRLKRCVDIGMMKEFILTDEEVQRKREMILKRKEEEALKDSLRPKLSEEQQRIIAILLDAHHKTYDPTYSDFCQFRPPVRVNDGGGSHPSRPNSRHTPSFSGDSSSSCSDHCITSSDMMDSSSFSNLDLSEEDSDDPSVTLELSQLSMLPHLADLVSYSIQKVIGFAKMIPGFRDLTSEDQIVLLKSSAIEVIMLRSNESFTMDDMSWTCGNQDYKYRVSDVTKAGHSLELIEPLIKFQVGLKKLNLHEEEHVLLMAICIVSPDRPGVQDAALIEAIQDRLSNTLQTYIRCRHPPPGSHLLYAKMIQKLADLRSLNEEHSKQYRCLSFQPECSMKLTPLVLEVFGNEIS
UniProt P06401, sequence (P06401 whole entry, looked up): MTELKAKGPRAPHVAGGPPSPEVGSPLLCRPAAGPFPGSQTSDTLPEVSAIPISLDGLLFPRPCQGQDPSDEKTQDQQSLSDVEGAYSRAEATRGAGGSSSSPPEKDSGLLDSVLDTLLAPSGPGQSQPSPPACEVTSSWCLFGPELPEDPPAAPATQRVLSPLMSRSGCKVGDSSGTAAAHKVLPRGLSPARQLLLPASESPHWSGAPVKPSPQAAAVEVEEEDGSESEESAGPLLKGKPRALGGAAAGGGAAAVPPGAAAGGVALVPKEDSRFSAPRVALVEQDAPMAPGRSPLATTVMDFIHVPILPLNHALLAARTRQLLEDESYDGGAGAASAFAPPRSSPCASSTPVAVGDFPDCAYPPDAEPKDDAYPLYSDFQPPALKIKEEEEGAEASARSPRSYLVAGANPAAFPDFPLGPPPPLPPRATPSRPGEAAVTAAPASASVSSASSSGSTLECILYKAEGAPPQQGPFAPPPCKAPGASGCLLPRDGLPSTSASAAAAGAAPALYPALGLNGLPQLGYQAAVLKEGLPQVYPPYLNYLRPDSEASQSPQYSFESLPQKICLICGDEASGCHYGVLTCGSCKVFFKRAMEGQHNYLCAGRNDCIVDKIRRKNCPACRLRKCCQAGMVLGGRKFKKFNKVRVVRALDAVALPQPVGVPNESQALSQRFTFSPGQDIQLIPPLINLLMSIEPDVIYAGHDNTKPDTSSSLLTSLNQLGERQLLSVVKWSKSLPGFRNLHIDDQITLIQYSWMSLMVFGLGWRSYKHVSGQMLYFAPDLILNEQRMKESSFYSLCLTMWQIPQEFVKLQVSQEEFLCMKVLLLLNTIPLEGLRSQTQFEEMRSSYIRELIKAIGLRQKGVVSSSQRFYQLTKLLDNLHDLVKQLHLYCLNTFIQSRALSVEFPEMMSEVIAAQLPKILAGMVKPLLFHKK
UniProt P37231, sequence (P37231 whole entry, looked up): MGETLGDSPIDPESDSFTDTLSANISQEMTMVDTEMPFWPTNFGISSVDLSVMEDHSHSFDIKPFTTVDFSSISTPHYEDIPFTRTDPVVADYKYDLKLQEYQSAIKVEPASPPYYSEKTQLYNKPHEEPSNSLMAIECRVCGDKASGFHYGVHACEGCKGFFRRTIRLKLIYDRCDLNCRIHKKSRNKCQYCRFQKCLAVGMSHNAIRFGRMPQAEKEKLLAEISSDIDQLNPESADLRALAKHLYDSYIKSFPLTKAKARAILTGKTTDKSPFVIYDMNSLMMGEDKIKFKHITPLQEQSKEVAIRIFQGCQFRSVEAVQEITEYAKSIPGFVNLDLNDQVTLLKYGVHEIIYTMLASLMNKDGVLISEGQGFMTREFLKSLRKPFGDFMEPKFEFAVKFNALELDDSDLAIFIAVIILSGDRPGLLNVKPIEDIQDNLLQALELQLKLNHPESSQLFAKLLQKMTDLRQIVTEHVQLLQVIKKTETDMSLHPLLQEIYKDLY
UniProt P11712, sequence (P11712 whole entry, looked up): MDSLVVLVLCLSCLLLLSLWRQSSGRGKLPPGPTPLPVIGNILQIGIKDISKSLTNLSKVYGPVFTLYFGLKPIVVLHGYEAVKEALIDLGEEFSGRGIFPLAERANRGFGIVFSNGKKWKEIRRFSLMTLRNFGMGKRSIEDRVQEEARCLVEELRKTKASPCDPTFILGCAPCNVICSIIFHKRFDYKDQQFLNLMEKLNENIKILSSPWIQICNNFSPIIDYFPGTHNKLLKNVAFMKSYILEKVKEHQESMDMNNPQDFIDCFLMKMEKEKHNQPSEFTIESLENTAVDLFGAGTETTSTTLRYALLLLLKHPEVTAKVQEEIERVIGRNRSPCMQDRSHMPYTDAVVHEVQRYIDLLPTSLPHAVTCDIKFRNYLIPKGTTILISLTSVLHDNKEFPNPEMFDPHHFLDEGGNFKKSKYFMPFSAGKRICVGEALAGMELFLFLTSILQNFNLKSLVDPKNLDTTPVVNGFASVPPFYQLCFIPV
UniProt P10635, sequence (P10635 whole entry, looked up): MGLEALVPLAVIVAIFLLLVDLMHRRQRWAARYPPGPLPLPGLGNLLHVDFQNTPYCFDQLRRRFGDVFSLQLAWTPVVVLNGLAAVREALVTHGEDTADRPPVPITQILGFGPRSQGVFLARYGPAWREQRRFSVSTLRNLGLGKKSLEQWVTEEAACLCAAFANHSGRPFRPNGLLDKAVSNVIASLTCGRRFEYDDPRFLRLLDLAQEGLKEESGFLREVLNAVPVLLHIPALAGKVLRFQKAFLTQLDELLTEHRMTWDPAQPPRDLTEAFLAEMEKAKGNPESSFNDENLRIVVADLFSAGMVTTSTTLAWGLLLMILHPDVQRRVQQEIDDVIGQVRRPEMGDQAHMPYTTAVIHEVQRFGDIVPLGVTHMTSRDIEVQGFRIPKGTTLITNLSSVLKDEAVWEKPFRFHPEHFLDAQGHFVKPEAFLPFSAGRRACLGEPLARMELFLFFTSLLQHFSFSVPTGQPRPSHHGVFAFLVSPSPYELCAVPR
UniProt P05177, sequence (P05177 whole entry, looked up): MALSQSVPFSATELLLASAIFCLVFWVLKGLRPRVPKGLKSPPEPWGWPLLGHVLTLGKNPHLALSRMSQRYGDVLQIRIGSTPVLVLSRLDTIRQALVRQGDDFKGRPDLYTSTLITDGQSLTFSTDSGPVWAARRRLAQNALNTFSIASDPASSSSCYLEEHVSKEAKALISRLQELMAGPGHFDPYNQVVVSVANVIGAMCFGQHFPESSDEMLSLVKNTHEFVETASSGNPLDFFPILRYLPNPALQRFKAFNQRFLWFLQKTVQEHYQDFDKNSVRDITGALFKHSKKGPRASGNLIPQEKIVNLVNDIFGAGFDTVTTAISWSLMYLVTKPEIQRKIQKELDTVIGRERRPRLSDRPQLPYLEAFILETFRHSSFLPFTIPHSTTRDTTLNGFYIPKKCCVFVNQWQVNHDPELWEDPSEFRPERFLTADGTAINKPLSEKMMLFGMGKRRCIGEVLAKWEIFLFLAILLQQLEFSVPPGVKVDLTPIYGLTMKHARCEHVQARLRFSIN
UniProt Q96RI1, sequence (Q96RI1 whole entry, looked up): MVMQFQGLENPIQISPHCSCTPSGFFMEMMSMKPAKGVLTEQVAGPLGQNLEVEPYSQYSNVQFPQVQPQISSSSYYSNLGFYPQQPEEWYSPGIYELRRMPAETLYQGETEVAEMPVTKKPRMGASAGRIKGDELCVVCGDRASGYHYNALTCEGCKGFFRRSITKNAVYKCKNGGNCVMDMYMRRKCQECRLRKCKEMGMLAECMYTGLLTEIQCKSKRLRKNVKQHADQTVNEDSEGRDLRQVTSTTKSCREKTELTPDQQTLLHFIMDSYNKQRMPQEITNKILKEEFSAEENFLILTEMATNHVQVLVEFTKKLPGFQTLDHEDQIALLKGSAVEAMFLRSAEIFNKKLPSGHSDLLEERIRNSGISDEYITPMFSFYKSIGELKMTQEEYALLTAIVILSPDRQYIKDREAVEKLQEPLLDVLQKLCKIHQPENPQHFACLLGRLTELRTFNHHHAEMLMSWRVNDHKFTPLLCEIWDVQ

COC(=O)c1cc(C(=O)OC)cc(S(=O)(=O)O)c1
inconclusive: activity change, negative = inhibition [1] 14.8% | activation [4] 6.15% | Potency [5] 0.0015 µM [rising, full curve] | activity change, negative = inhibition [8] 9.55% | Potency [9] 26.9 µM [cytotoxic, single point] | Potency [10] 62.3 µM [inhibitor, partial curve]
inactive: Potency [2] | Potency [3] | Potency [6] | Potency [7]

Cc1coc2ccccc2c1=O
inactive: Potency [2] | Potency [4] | Potency [11] | Potency [8] | Potency [13] | Potency [14]
inconclusive: ratio activity, negative = inhibition [6] 0.667% | activity change, negative = inhibition [12] 22.7%

CCCCCCCC(C)=O
inactive: Potency [15]
